According to the supplement of paper PMC11876631:
± gives the standard deviation of the averaged measurements. Laboratory Escherichia coli strains with one amino-acid change in an essential protein, pooled on minimal glucose agar with carbenicillin or gentamicin at twice the control MIC (plus kanamycin and chloramphenicol for the plasmids), 48 h. Fold change of barcode share against drug-free plates; higher = less susceptible. Active = above 20 in both replicates (the paper's putatively resistant). '<' = one read or none on drug, '>' = one read or none on a drug-free plate. Shares are relative, so most strains fall below 1 when a few take over. Listed are strains with at least 15 reads on both drug-free plates, and hits; most hits rest on fewer reference reads. Replicate rank correlation about 0.5. Edits are read from barcodes.

Molecular target: Escherichia coli (laboratory strain)
Assay: barcode share on antibiotic plates over drug-free plates; higher = less susceptible
Conditions: antibiotic: gentamicin; 2× MIC (MIC 0.45 µg/mL)
Experimental: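 A pool of E. coli strains, each edited to carry one amino-acid change in an essential protein, was grown for 48 h on minimal glucose agar with or without antibiotic; strain barcodes were sequenced; mean of two replicates.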

| Protein | fold change of barcode share |
| --- | --- |
| hisG I217W (protein) MTDNTRLRIAMQKSGRLSDDSRELLARCGIKINLHTQRLIAMAENMPIDILRVRDDDIPGLVMDGVVDLGIIGENVLEEELLNRRAQGEDPRYFTLRRLDFGGCRLSLATPVDEAWDGPLSLNGKRIATSYPHLLKRYLDQKGISFKSCLLNGSVEVAPRAGLADAICDLVSTGATLEANGLREVEVIYRSKACLIQRDGEMEESKQQLIDKLLTRWQGVIQARESKYIMMHAPTERLDEVIALLPGAERPTILPLAGDQQRVAMHMVSSETLFWETMEKLKALGASSILVLPIEKMME | < 0.0195 |
| hisH I66A (protein) MNVVILDTGCANLNSVKSAIARHGYEPKVSRDPDVVLLADKLFLPGVGTAQAAMDQVRERELFDLAKACTQPVLGICLGMQLLGRRSEESNGVDLLGIIDEDVPKMTDFGLPLPHMGWNRVYPQAGNRLFQGIEDGAYFYFVHSYAMPVNPWTIAQCNYGEPFTAAVQKDNFYGVQFHPERSGAAGAKLLKNFLEM | < 0.0163 |
| hisI W112A (protein) MLTEQQRRELDWEKTDGLMPVIVQHAVSGEVLMLGYMNPEALDKTLESGKVTFFSRTKQRLWTKGETSGNFLNVVSIAPDCDNDTLLVLANPIGPTCHKGTSSCFGDTAHQALFLYQLEQLLAERKSADPETSYTAKLYASGTKRIAQKVGEEGVETALAATVHDRFELTNEASDLMYHLLVLLQDQGLDLTTVIENLRKRHQ | 0.0133 ± 0.005 |
| hisI W112D (protein) MLTEQQRRELDWEKTDGLMPVIVQHAVSGEVLMLGYMNPEALDKTLESGKVTFFSRTKQRLWTKGETSGNFLNVVSIAPDCDNDTLLVLANPIGPTCHKGTSSCFGDTAHQDLFLYQLEQLLAERKSADPETSYTAKLYASGTKRIAQKVGEEGVETALAATVHDRFELTNEASDLMYHLLVLLQDQGLDLTTVIENLRKRHQ | 0.0259 ± 0.027 |
| hisI F114Q (protein) MLTEQQRRELDWEKTDGLMPVIVQHAVSGEVLMLGYMNPEALDKTLESGKVTFFSRTKQRLWTKGETSGNFLNVVSIAPDCDNDTLLVLANPIGPTCHKGTSSCFGDTAHQWLQLYQLEQLLAERKSADPETSYTAKLYASGTKRIAQKVGEEGVETALAATVHDRFELTNEASDLMYHLLVLLQDQGLDLTTVIENLRKRHQ | < 0.018 |
| hisS V89A (protein) MAKNIQAIRGMNDYLPGETAIWQRIEGTLKNVLGSYGYSEIRLPIVEQTPLFKRAIGEVTDVVEKEMYTFEDRNGDSLTLRPEGTAGCARAGIEHGLLYNQEQRLWYIGPMFRHERPQKGRYRQFHQLGCEVFGLQGPDIDAELIMLTARWWRALGISEHVTLELNSIGSLEARANYRDALVAFLEQHKEKLDEDCKRRMYTNPLRVLDSKNPEVQALLNDAPALGDYLDEESREHFAGLCKLLESAGIAYTVNQRLVRGLDYYNRTVFEWVTNSLGSQGTVCAGGRYDGLVEQLGGRATPAVGFAMGLERLVLLVQAVNPEFKADPVVDIYLVASGADTQSAAMALAERLRDELPGVKLMTNHGGGNFKKQFARADKWGARVAVVLGESEVANGTAVVKDLRSGEQTAVAQDSVAAHLRTLLG | < 0.02 |
| hisS V89D (protein) MAKNIQAIRGMNDYLPGETAIWQRIEGTLKNVLGSYGYSEIRLPIVEQTPLFKRAIGEVTDVVEKEMYTFEDRNGDSLTLRPEGTAGCDRAGIEHGLLYNQEQRLWYIGPMFRHERPQKGRYRQFHQLGCEVFGLQGPDIDAELIMLTARWWRALGISEHVTLELNSIGSLEARANYRDALVAFLEQHKEKLDEDCKRRMYTNPLRVLDSKNPEVQALLNDAPALGDYLDEESREHFAGLCKLLESAGIAYTVNQRLVRGLDYYNRTVFEWVTNSLGSQGTVCAGGRYDGLVEQLGGRATPAVGFAMGLERLVLLVQAVNPEFKADPVVDIYLVASGADTQSAAMALAERLRDELPGVKLMTNHGGGNFKKQFARADKWGARVAVVLGESEVANGTAVVKDLRSGEQTAVAQDSVAAHLRTLLG | < 0.0203 |
| hisS F133D (protein) MAKNIQAIRGMNDYLPGETAIWQRIEGTLKNVLGSYGYSEIRLPIVEQTPLFKRAIGEVTDVVEKEMYTFEDRNGDSLTLRPEGTAGCVRAGIEHGLLYNQEQRLWYIGPMFRHERPQKGRYRQFHQLGCEVDGLQGPDIDAELIMLTARWWRALGISEHVTLELNSIGSLEARANYRDALVAFLEQHKEKLDEDCKRRMYTNPLRVLDSKNPEVQALLNDAPALGDYLDEESREHFAGLCKLLESAGIAYTVNQRLVRGLDYYNRTVFEWVTNSLGSQGTVCAGGRYDGLVEQLGGRATPAVGFAMGLERLVLLVQAVNPEFKADPVVDIYLVASGADTQSAAMALAERLRDELPGVKLMTNHGGGNFKKQFARADKWGARVAVVLGESEVANGTAVVKDLRSGEQTAVAQDSVAAHLRTLLG | < 0.0201 |
| ilvA M70P (protein) MADSQPLSGAPEGAEYLRAVLRAPVYEAAQVTPLQKMEKLSSRLDNVILVKREDRQPVHSFKLRGAYAMPAGLTEEQKAHGVITASAGNHAQGVAFSSARLGVKALIVMPTATADIKVDAVRGFGGEVLLHGANFDEAKAKAIELSQQQGFTWVPPFDHPMVIAGQGTLALELLQQDAHLDRVFVPVGGGGLAAGVAVLIKQLMPQIKVIAVEAEDSACLKAALDAGHPVDLPRVGLFAEGVAVKRIGDETFRLCQEYLDDIITVDSDAICAAMKDLFEDVRAVAEPSGALALAGMKKYIALHNIRGERLAHILSGANVNFHGLRYVSERCELGEQREALLAVTIPEEKGSFLKFCQLLGGRSVTEFNYRFADAKNACIFVGVRLSRGLEERKEILQMLNDGGYSVVDLSDDEMAKLHVRYMVGGRPSHPLQERLYSFEFPESPGALLRFLNTLGTYWNISLFHYRSHGTDYGRVLAAFELGDHEPDFETRLNELGYDCHDETNNPAFRFFLAG | < 0.013 |
| infB I440W (protein) MTDVTIKTLAAERQTSVERLVQQFADAGIRKSADDSVSAQEKQTLIDHLNQKNSGPDKLTLQRKTRSTLNIPGTGGKSKSVQIEVRKKRTFVKRDPQEAERLAAEEQAQREAEEQARREAEESAKREAQQKAEREAAEQAKREAAEQAKREAAEKDKVSNQQDDMTKNAQAEKARREQEAAELKRKAEEEARRKLEEEARRVAEEARRMAEENKWTDNAEPTEDSSDYHVTTSQHARQAEDESDREVEGGRGRGRNAKAARPKKGNKHAESKADREEARAAVRGGKGGKRKGSSLQQGFQKPAQAVNRDVVIGETITVGELANKMAVKGSQVIKAMMKLGAMATINQVIDQETAQLVAEEMGHKVILRRENELEEAVMSDRDTGAAAEPRAPVVTIMGHVDHGKTSLLDYIRSTKVASGEAGGITQHIGAYHVETENGMWTFLDTPGHAAFTSMRARGAQATDIVVLVVAADDGVMPQTIEAIQHAKAAQVPVVVAVNKIDKPEADPDRVKNELSQYGILPEEWGGESQFVHVSAKAGTGIDELLDAILLQAEVLELKAVRKGMASGAVIESFLDKGRGPVATVLVREGTLHKGDIVLCGFEYGRVRAMRNELGQEVLEAGPSIPVEILGLSGVPAAGDEVTVVRDEKKAREVALYRQGKFREVKLARQQKSKLENMFANMTEGEVHEVNIVLKADVQGSVEAISDSLLKLSTDEVKVKIIGSGVGGITETDATLAAASNAILVGFNVRADASARKVIEAESLDLRYYSVIYNLIDEVKAAMSGMLSPELKQQIIGLAEVRDVFKSPKFGAIAGCMVTEGVVKRHNPIRVLRDNVVIYEGELESLRRFKDDVNEVRNGMECGIGVKNYNDVRTGDVIEVFEIIEIQRTIA | < 0.0149 |
| infC I165A (protein) MKGGKRVQTARPNRINGEIRAQEVRLTGLEGEQLGIVSLREALEKAEEAGVDLVEISPNAEPPVCRIMDYGKFLYEKSKSSKEQKKKQKVIQVKEIKFRPGTDEGDYQVKLRSLIRFLEEGDKAKITLRFRGREMAHQQIGMEVLNRVKDDLQELAVVESFPTKAEGRQMIMVLAPKKKQ | < 0.0187 |
| infC I165D (protein) MKGGKRVQTARPNRINGEIRAQEVRLTGLEGEQLGIVSLREALEKAEEAGVDLVEISPNAEPPVCRIMDYGKFLYEKSKSSKEQKKKQKVIQVKEIKFRPGTDEGDYQVKLRSLIRFLEEGDKAKITLRFRGREMAHQQIGMEVLNRVKDDLQELAVVESFPTKDEGRQMIMVLAPKKKQ | < 0.0177 |
| ispA I76D (protein) MDFPQQLEACVKQANQALSRFIAPLPFQNTPVVETMQYGALLGGKRLRPFLVYATGHMFGVSTNTLDAPAAAVECDHAYSLIHDDLPAMDDDDLRRGLPTCHVKFGEANAILAGDALQTLAFSILSDADMPEVSDRDRISMISELASASGIAGMCGGQALDLDAEGKHVPLDALERIHRHKTGALIRAAVRLGALSAGDKGRRALPVLDKYAESIGLAFQVQDDILDVVGDTATLGKRQGADQQLGKSTYPALLGLEQARKKARDLIDDARQSLKQLAEQSLDTSALEALADYIIQRNK | 40.2 [active] |
| ispA V190W (protein) MDFPQQLEACVKQANQALSRFIAPLPFQNTPVVETMQYGALLGGKRLRPFLVYATGHMFGVSTNTLDAPAAAVECIHAYSLIHDDLPAMDDDDLRRGLPTCHVKFGEANAILAGDALQTLAFSILSDADMPEVSDRDRISMISELASASGIAGMCGGQALDLDAEGKHVPLDALERIHRHKTGALIRAAWRLGALSAGDKGRRALPVLDKYAESIGLAFQVQDDILDVVGDTATLGKRQGADQQLGKSTYPALLGLEQARKKARDLIDDARQSLKQLAEQSLDTSALEALADYIIQRNK | > 34.8 [active] |
